{"source": "PubChem BioAssay AID1466", "about": "(National Center for Advancing Translational Sciences (NCATS), 2008)", "note": "Screen size: about 200,000 compounds; about 10 (0.005%) were called active. Inconclusive means that the source gave no clear call. Such entries were picked first, then a sample of the others. The call rests on the fitted dose curve; in most records, active means well fitted inhibition curve with a large enough effect; inconclusive means small, poorly fitted or top-dose-only effect, or effect the other way, or another doubt; inactive means no such curve, though single readings can be large or run the other way. Potencies of inconclusive entries are left out as doubtful fits. Potency means the concentration at half of the fitted maximal effect; tags describe the fitted curve by direction and shape.", "data": [{"biological_target": "Lysosomal alpha-glucosidase (Homo sapiens) (UniProt P10253)", "experiment": "qHTS Assay for Inhibitors of Human alpha-Glucosidase as a Potential Chaperone Treatment of Pompe Disease;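 on activity change, negative = inhibition: plate controls were uninhibited enzyme wells for no effect and no-enzyme background for full effect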", "details": "purified human GAA, 4-MU-alpha-glucoside fluorescence; activity change, negative = inhibition: at 76.9 µM (top of the series) unless noted", "outline": "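Endpoint fluorogenic read: 20 min room-temperature reaction of 4 nM human alpha-glucosidase with 400 uM 4-methylumbelliferyl-alpha-D-pyranoside, pH 5.0, quenched with 1M NaOH/1M glycine pH 10. AC50 from Hill modeling.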", "values": [{"smiles": "Cc1ccccc1C(=O)N1CCN(c2ccc(NC(=O)CSc3ccc(Cl)cc3)cc2)CC1", "activity change, negative = inhibition": "inconclusive: -17.7% [inhibitor]"}, {"smiles": "COC(=O)c1nc2n(n1)C(c1ccc(OC)c(OC)c1OC)C1=C(CCCC1=O)N2", "note": "(centres undefined)", "Potency": "inconclusive [inhibitor, full curve, poor fit]"}, {"smiles": "CCOc1cc(/C=N/NC(N)=O)cc(Br)c1OCc1ccccc1F", "Potency": "inactive"}, {"smiles": "CCCS(=O)(=O)c1c(S(=O)(=O)CCC)c2cc(-c3ccncc3)ccn2c1C(=O)OC", "Potency": "inconclusive [activator, partial curve]"}, {"smiles": "CC(C)NS(=O)(=O)c1ccc(OCC(=O)Nc2cccc3ccccc23)cc1", "Potency": "inconclusive [inhibitor, partial curve]"}, {"smiles": "CC(C)c1ccccc1OCCNC(=S)NC(=O)c1cccnc1", "Potency": "inconclusive [inhibitor, partial curve, poor fit]"}, {"smiles": "Nc1nonc1C(=O)N/N=C/c1ccc(-c2ccc(Cl)c(C(=O)O)c2)o1", "Potency": "inactive"}, {"smiles": "COc1cccc(CC(=O)N2CCN(c3ccccc3[N+](=O)[O-])CC2)c1", "activity change, negative = inhibition": "inconclusive: -15.1% [inhibitor]"}, {"smiles": "O=C(CCCn1c(=S)[nH]c2ccccc2c1=O)NC1CCCCC1", "Potency": "inconclusive [inhibitor, full curve, poor fit]"}, {"smiles": "CCOC(=O)N1CCC(NC(=O)c2ccc3c(=O)n4c(nc3c2)CCCC4)CC1", "Potency": "inconclusive [inhibitor, full curve]"}, {"smiles": "COc1ccc(C(C(=O)NC(C)C)N(C(=O)CCC(=O)Nc2nccs2)c2ccccc2F)cc1", "note": "(centres undefined)", "activity change, negative = inhibition": "inconclusive: 18.9% [activator]"}, {"smiles": "CCCNC(=O)c1c(N)n(-c2cc(OC)cc(OC)c2)c2nc3ccccc3nc12", "Potency": "inconclusive [activator, partial curve]"}, {"smiles": "CCOC(=O)C1CCN(S(=O)(=O)c2cn(C)c(=O)n(C)c2=O)CC1", "Potency": "inconclusive [inhibitor, single point]"}, {"smiles": "C1=C(CCNc2ncnc3c2[nH]c2ccccc23)CCCC1", "Potency": "inconclusive [inhibitor, partial curve]"}, {"smiles": "COc1cccc(NC(=S)NCc2ccc3c(c2)cc(C)n3C)c1", "Potency": "inconclusive [inhibitor, single point]"}, {"smiles": "Cc1cc(C)nc(NC(=O)c2ccc([N+](=O)[O-])o2)n1", "Potency": "inconclusive [activator, partial curve]"}, {"smiles": "CCN(C(=O)COC(=O)c1[nH]c(C)c(C(C)=O)c1C)C1CCS(=O)(=O)C1", "note": "(centres undefined)", "activity change, negative = inhibition": "inconclusive: -15.2% [inhibitor]"}, {"smiles": "Cc1ccc(NC(=O)CSc2nc(CSc3ccc(C)cc3)cc(=O)[nH]2)cc1", "activity change, negative = inhibition": "inconclusive: 14.4% [activator]"}, {"smiles": "Cn1c(=O)c2[nH]c(Nc3ccccc3)nc2n(C)c1=O", "Potency": "inactive"}, {"smiles": "COc1ccc(OC)c(/C=C/C(=O)OCC(=O)Nc2cccc(C(C)=O)c2)c1", "Potency": "inconclusive [activator, single point]"}, {"smiles": "CN(C(=O)CSc1ncccc1C(=O)O)c1ccccc1", "activity change, negative = inhibition": "inconclusive: -15.7% [inhibitor]"}, {"smiles": "COc1ccc(CN2CCCC(C(=O)c3ccc(Cl)cc3)C2)cc1Cn1cncn1", "note": "(centres undefined)", "Potency": "inactive"}, {"smiles": "Cc1cc(C)nc(SCc2nnc(SCC(N)=O)o2)n1", "activity change, negative = inhibition": "inconclusive: 16.5% [activator]"}, {"smiles": "O/N=C(\\c1ccc2c(c1)OCCO2)C1CCCCC1", "Potency": "inconclusive [inhibitor, partial curve]"}, {"smiles": "CCOc1cc(/C=N/Nc2nc(-c3cccc(S(=O)(=O)N4CCCC4)c3)cs2)ccc1O", "Potency": "inconclusive [inhibitor, single point]"}, {"smiles": "CCC(Sc1nc(C)cc(C)n1)C(=O)NC1=NN=C(c2ccc(C)cc2)CS1", "note": "(centres undefined)", "Potency": "inconclusive [inhibitor, full curve, poor fit]"}, {"smiles": "CCCc1cc(=O)n2c([nH]c3ccccc32)c1C#N", "Potency": "inconclusive [activator, partial curve]"}, {"smiles": "Cc1cccc(C)c1NC(=O)COC(=O)c1ccccc1Nc1ccccc1", "Potency": "inconclusive [activator, partial curve]"}, {"smiles": "COc1ccc(OC)c(NC(=O)C2C3CCC(C3=C(C)C)C2C(=O)O)c1", "note": "(centres undefined)", "Potency": "inconclusive [inhibitor, partial curve, poor fit]"}, {"smiles": "Cc1cc(S(=O)(=O)Nc2nc(CN3CCOCC3)nc3sc4c(c23)CCCC4)ccc1F", "Potency": "inconclusive [inhibitor, single point]"}, {"smiles": "O=C(N/N=C/c1ccc(Cl)cc1)C(=O)N1CCCCCC1", "Potency": "inconclusive [activator, full curve]"}, {"smiles": "COc1ccccc1N(CC(O)COc1ccc(C)cc1)S(=O)(=O)c1ccccc1", "note": "(centres undefined)", "Potency": "inconclusive [inhibitor, single point]"}, {"smiles": "CCOC(=O)c1c(NC(=O)C2C3C=CC(C3)C2C(=O)O)sc2c1CCCC2", "note": "(centres undefined)", "Potency": "inconclusive [inhibitor, single point]"}, {"smiles": "CCOC(=O)C1Cn2c(nc3c(c2=O)C2(CCCC2)Cc2ccccc2-3)S1", "note": "(centres undefined)", "Potency": "inconclusive [inhibitor, single point]"}, {"smiles": "CCOC(=O)N1CCN(C(=S)NCCOC)CC1", "activity change, negative = inhibition": "inconclusive: -15.9% [inhibitor]"}, {"smiles": "CC1(C)CC(=O)C(C=N)=C(O)C1", "Potency": "inconclusive [activator, full curve, poor fit]"}, {"smiles": "COC(=O)Cn1nnc2c(cnn2-c2ccccc2)c1=O", "activity change, negative = inhibition": "inconclusive: 16.1% [activator]"}, {"smiles": "Cc1ccc(C)c(-n2c3nc(=O)[nH]c(=O)c-3cc3cc([N+](=O)[O-])ccc32)c1", "Potency": "inactive"}, {"smiles": "COc1ccc(C(=O)c2ccc([N+](=O)[O-])cc2Cl)cc1", "Potency": "inconclusive [inhibitor, single point]"}, {"smiles": "CC(=O)Oc1ccc2c(C)cc(=O)oc2c1", "Potency": "inconclusive [activator, partial curve]"}, {"smiles": "CCOc1ccccc1C1C(C#N)=C(N)Oc2cc(C)n(C)c(=O)c21", "note": "(centres undefined)", "Potency": "inconclusive [inhibitor, single point]"}, {"smiles": "O=C(Nc1ccc(Cl)c(Cl)c1)c1ccc(Cn2c(=O)[nH]c3ccsc3c2=O)cc1", "Potency": "inconclusive [inhibitor, single point]"}, {"smiles": "N#CCC(CNc1ncc(C(F)(F)F)cc1Cl)OC(=O)c1ccc(Cl)cc1Cl", "note": "(centres undefined)", "Potency": "inconclusive [inhibitor, full curve, poor fit]"}, {"smiles": "COc1ccc(C2C(C(=O)N3CCN(c4ccccn4)CC3)CC(=O)N2c2ccc(OC)cc2)cc1", "note": "(centres undefined)", "activity change, negative = inhibition": "inconclusive: -15.2% [inhibitor]"}, {"smiles": "COc1cccc(-c2n[nH]c3c2CCC3)c1", "Potency": "inconclusive [inhibitor, single point]"}, {"smiles": "O=C1c2cccc3cccc(c23)C(=O)N1c1cccnc1", "Potency": "inconclusive [inhibitor, single point]"}, {"smiles": "CC(=O)Nc1ccc(S(=O)(=O)Nc2nc3ccccc3nc2Nc2ccc3ccccc3c2)cc1", "Potency": "inconclusive [inhibitor, full curve]"}, {"smiles": "CCOC(=O)CN/C=C(\\C#N)c1ccc(F)cc1", "activity change, negative = inhibition": "inconclusive: 16.8% [activator]"}, {"smiles": "CCOC(=O)c1[nH]c2ccc(Cl)cc2c1NC(=O)c1nonc1C", "Potency": "inconclusive [inhibitor, single point]"}, {"smiles": "CCOC(=O)C(C)Sc1nc(-c2ccccc2)nc2ccc(F)cc12", "note": "(centres undefined)", "Potency": "inconclusive [activator, full curve, poor fit]"}, {"smiles": "CCOC(=O)C(C)Sc1nc(-c2ccco2)cc(C(F)(F)F)c1C#N", "note": "(centres undefined)", "Potency": "inconclusive [activator, partial curve]"}, {"smiles": "O=C(COc1ccccc1Br)Nc1ccccc1C(F)(F)F", "activity change, negative = inhibition": "inconclusive: 16.9% [activator]"}, {"smiles": "O=C1NC(c2ccco2)Nc2ccccc21", "note": "(centres undefined)", "Potency": "inconclusive [activator, partial curve, poor fit]"}, {"smiles": "O=C(c1cccs1)c1ccc(-c2cccs2)s1", "Potency": "inconclusive [inhibitor, single point]"}, {"smiles": "COc1ccccc1C(=O)OCC(=O)Nc1ccc(Cl)cn1", "activity change, negative = inhibition": "inconclusive: -18.5% [inhibitor]"}, {"smiles": "Cc1[nH]c2c(C(=O)N3CCCC(CCC(=O)NCc4ccccc4F)C3)cccc2c1C", "note": "(centres undefined)", "Potency": "inconclusive [inhibitor, single point]"}, {"smiles": "CC1(C)CC(NC(=O)c2coc(=O)c(Br)c2)CC(C)(C)N1", "Potency": "inconclusive [activator, partial curve, poor fit]"}, {"smiles": "O=S(=O)(NCc1ccccn1)c1ccc(Br)s1", "Potency": "inconclusive [inhibitor, single point]"}, {"smiles": "COC(=O)c1[nH]c2cc(C)ccc2c1NC(=O)CN1CCc2cc(OC)c(OC)cc2C1", "Potency": "inconclusive [inhibitor, full curve]"}, {"smiles": "O=C(c1cc2c(F)cccc2s1)N1CCCC1", "activity change, negative = inhibition": "inconclusive: 17.8% [activator]"}, {"smiles": "CCc1cc(CC)c(/C=N/NC(N)=O)c(CC)c1", "Potency": "inconclusive [inhibitor, single point]"}, {"smiles": "Cc1cccc(NC(=O)C(=O)NCCc2c[nH]c3ccccc23)c1C", "Potency": "inconclusive [inhibitor, partial curve, poor fit]"}, {"smiles": "Cc1ccc(N2C(=O)c3cccc4c(N5CCN(C)CC5)ccc(c34)C2=O)c2cccnc12", "Potency": "inconclusive [inhibitor, single point]"}, {"smiles": "NC(=S)N=Nc1c(O)n(Cc2ccccc2)c2ccccc12", "Potency": "inconclusive [inhibitor, single point]"}]}]}
